From PMC4336329 (PLoS ONE, 2015)
In all, about 310,000 compounds went through this assay and about 14,000 (4.5%) showed an effect of 50% or more. Effects have a minus sign here. The list shows a part of the results.

target: human ether-à-go-go-related gene (hERG) potassium channel (human, UniProt Q12809); test: primary screen, population patch clamp on CHO cells stably expressing hERG
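Further: peak tail current of the secondary pulse compared with the same well before compound.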

Chain of human ether-à-go-go-related gene (hERG) potassium channel (Q12809 whole entry, looked up): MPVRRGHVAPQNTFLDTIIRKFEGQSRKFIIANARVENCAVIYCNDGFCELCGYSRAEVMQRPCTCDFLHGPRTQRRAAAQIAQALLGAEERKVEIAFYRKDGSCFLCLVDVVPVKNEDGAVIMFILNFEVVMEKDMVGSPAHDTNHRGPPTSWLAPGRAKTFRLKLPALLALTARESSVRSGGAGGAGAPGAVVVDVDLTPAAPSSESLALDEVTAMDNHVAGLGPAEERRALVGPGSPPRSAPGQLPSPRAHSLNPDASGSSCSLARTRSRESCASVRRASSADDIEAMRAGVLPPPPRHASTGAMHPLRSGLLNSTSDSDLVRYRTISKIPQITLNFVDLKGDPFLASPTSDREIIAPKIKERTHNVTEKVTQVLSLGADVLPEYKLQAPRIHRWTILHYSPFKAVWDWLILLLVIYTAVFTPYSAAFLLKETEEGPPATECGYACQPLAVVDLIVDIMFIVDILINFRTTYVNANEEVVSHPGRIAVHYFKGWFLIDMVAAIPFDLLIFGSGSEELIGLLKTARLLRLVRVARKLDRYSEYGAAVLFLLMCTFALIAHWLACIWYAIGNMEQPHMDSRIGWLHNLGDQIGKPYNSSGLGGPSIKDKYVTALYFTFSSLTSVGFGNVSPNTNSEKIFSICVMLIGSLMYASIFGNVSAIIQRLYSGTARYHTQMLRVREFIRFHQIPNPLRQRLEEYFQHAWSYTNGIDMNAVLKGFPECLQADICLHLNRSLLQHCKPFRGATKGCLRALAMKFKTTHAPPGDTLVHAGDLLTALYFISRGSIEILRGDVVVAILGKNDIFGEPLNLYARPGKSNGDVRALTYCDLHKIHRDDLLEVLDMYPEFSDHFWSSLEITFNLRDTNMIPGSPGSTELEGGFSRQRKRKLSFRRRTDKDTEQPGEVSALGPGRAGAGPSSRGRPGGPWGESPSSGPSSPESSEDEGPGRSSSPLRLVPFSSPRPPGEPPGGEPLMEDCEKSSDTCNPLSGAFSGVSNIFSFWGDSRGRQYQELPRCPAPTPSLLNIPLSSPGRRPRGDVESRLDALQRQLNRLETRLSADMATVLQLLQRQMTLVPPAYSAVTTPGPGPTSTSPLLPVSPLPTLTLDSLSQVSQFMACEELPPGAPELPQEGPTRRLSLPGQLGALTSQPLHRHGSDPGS

Row | SMILES | hERG current change (%, negative = inhibition) at 10uM [%]
1 | O=C(CSc1nnc2ccccn12)c1ccc2c(c1)OCCO2 | 5.44
2 | O=C(c1ccc2nc(Cc3cccc(Cl)c3)oc2c1)N1CCOCC1 | -16.6
3 | COCCOC(=O)N/C=C\c1nc2ccccc2c(=O)[nH]1 | -0.645
4 | COc1ccc(/C=N/OCC(=O)OCC(=O)N(C)c2ccccc2)cc1 | 7.9
5 | O=C(CSc1nnc(NC(=O)c2c(F)cccc2F)s1)NC1CC1 | 21.9
6 | COc1ccc2nc(N3CCN(C(=O)c4ccc5ncsc5c4)CC3)sc2c1 | 14.1
7 | CCC(C)(C)n1nnnc1C(c1cc2ccc(C)cc2[nH]c1=O)N(Cc1cccnc1)Cc1ccco1 (stereo not drawn) | -60.6
8 | CCCN(CCC)C(=O)CCS(=O)(=O)c1cccc2nsnc12 | -24.4
9 | COC(=O)c1ccc(NC(=O)N2CCOCC2)cc1 | 16.5
10 | CCOC(=O)N1CCN(S(=O)(=O)c2ccc(C(=O)Nc3nc4ccccc4s3)cc2)CC1 | -9.18
11 | O=C(c1cccs1)N1CCN(Cc2nc3ccccc3c(=O)[nH]2)CC1 | -33
12 | CCn1c(Cc2ccccc2)nnc1SCC(=O)Nc1ccc(OC)cc1 | 0.256
13 | COc1cc(C(=O)OCC(=O)NC(=O)NC2CCCCC2)cc(Cl)c1OC | -20.2
14 | O=C(CSc1nc2ccccc2c(=O)[nH]1)Nc1ccccc1O | -12.3
15 | Cn1nnnc1SCc1ccc(F)cc1 | 9.36
16 | O=C(NCc1ccco1)c1ccc(-c2cccc(Cl)c2)o1 | 4.25
17 | CCOC(=O)c1ccc(NC(=O)Cn2nnc(-c3ccc(F)cc3)n2)cc1 | 3.38
18 | COc1cccc(CNC(=O)C2CCCN(S(=O)(=O)N3CC(C)CC(C)C3)C2)c1 (stereo not drawn) | 3.89
19 | CNC(=S)Nc1ccc(C23CC4CC(CC(C4)C2)C3)cc1 | 7.93
20 | COc1cc(NC(=O)CCc2nnc3ccc(N4CCC(C)CC4)nn23)cc(OC)c1 | 12.8
21 | CC(C)Cn1c(CN2CCN(c3ccccc3F)CC2)nc2c1c(=O)[nH]c(=O)n2C | -10.8
22 | O=C(CCC(=O)c1ccc(Oc2ccccc2)cc1)Nc1cccc(Cl)c1 | 4.54

Row | SMILES | hERG current change (%, negative = inhibition) at 10uM [%]
23 | COc1ccc(-n2nnc3c(=O)n(CC(=O)N4CCCC4)cnc32)cc1 | -6.02
24 | COc1cc(C[C@@H]2C(=O)OC[C@H]2Cc2ccc(OC)c(OC)c2)ccc1O | 13.9
25 | CSc1nc(C)c(CCOCc2ccc(F)cc2)c(=O)[nH]1 | -1.27
26 | Cc1ccc2nc(-c3ccc(NS(=O)(=O)c4ccc(F)cc4)cc3)sc2c1 | 8.01
27 | CC1CC(C)CN(C(=O)COC(=O)c2ccc([N+](=O)[O-])o2)C1 (stereo not drawn) | -4.31
28 | OCCCNc1ncnc2c1cnn2-c1ccc(Cl)cc1 | 16.9
29 | N#CCCNS(=O)(=O)c1ccc(C(=O)OCC2CCCCC2)cc1 | 19.7
30 | O=C(NCCC(=O)N1CCN(S(=O)(=O)c2ccccc2)CC1)c1ccc(Br)cc1 | -2.38
31 | CCN1CCCC1CNC(=O)CN(C)S(=O)(=O)c1ccc(Cl)cc1 (stereo not drawn) | -21.6
32 | CCCCN(CCCC)C(=O)C1(P(=O)(c2ccccc2)c2ccccc2)CCC1 | -33.5
33 | Cc1ccc(OCC(=O)Oc2ccc(C(C)C)cc2)cc1 | 9.25
34 | Cc1ccc2nc(SCC(=O)Nc3cccc(S(=O)(=O)N(C)C)c3)[nH]c2c1 | 2.91
35 | C=CCNC(=S)NNC(=O)c1ccncc1 | 1.85
36 | CSc1nnc(NC(=O)c2nc(S(=O)(=O)Cc3ccc(C)cc3)ncc2Cl)s1 | -19
37 | Cc1ccc(NS(=O)(=O)c2cc([N+](=O)[O-])ccc2NNC(=S)Nc2cc(C)ccc2C)c(C)c1 | -0.00412
38 | CC12CN(C(=O)c3ccccc3Br)CC(C)(CN(C(=O)c3ccccc3Br)C1)C2=O | -4.96
39 | Cc1cc(C)c2cc(CN(Cc3cccnc3)C(=O)c3ccc(F)cc3)c(Cl)nc2c1 | -64.7
40 | Cc1ccc(C)c(Nc2nc3ccc(C)cc3n3cnnc23)c1 | 24.4
41 | Cc1cc(Cl)ccc1OCC(=O)OC(C)C(=O)N(C)C (stereo not drawn) | 6.34
42 | COCCOC(=O)C1=C(C)NC(C)=C(C(=O)OCCOC)C1/C=C/c1ccccc1OC | 0.555
43 | CC(=O)N1CCN(C(=O)c2ccc(Oc3ccccc3)cc2)CC1 | 19.1
44 | COc1ccc(OCC(=O)Nc2cc3oc4ccccc4c3cc2OC)cc1 | 33.7

Row | SMILES | hERG current change (%, negative = inhibition) at 10uM [%]
45 | O=C(Nc1ccc2c(c1)OCCO2)c1cc2ccccc2o1 | -6.6
46 | Cc1ccccc1CS(=O)(=O)CCC(=O)NCc1ccccn1 | 16.8
47 | CC1CC(C)CN(CCOc2cccc(Cl)c2Cl)C1.O=C(O)C(=O)O (stereo not drawn) | -35.9
48 | CCOC(=O)C1=C(N)Oc2cc(O)ccc2C1c1cccc([N+](=O)[O-])c1 (stereo not drawn) | -11.3
49 | Cc1nn(-c2ccccc2)c(C)c1C(=O)NCc1ccc(S(N)(=O)=O)cc1 | 20.1
50 | COCCCNC(=S)N1CCN(c2ccc([N+](=O)[O-])cc2)CC1 | -68
51 | CCN1CCN(C/C(C)=C/c2ccccc2)CC1 | 4.72
52 | CCN(Cc1ccccc1)C(=O)C(C)OC(=O)c1cc(S(=O)(=O)Nc2c(C)n(C)n(-c3ccccc3)c2=O)ccc1C (stereo not drawn) | -19.3
53 | O=[N+]([O-])c1ccc(-c2cnc(NO)nc2)cc1 | -28
54 | O=C(NCc1ccc(F)cc1)C1CCCN(S(=O)(=O)c2cccc3nonc23)C1 (stereo not drawn) | 19.6
55 | Cc1cccc(C#Cc2ccccc2)n1.Cl | -2.49
56 | Cc1c(C(=O)NCc2cccnc2)oc2ccc(S(=O)(=O)N3CCCC(C)C3)cc12 (stereo not drawn) | -3.86
57 | COc1ccc(NC(=O)O/N=C/c2ccc(N(C)C)cc2)cc1 | 1.19
58 | O=C(COc1ccc(Cl)cc1Cl)N/N=C/c1ccc(OC2OC(CO)C(O)C(O)C2O)cc1 (stereo not drawn) | -11.5
59 | Cc1cc(C)n(CCO)c(=O)n1.Cl | 29
60 | CC(C)c1ccc(NC(=O)CSc2nc(=O)[nH]c3c2CCCC3)cc1 | -23.9
61 | Cc1cccc(NC(=O)c2ccc(NCC3CCCO3)c([N+](=O)[O-])c2)c1 (stereo not drawn) | -0.991
62 | COCCSc1ccccc1C(=O)NCc1cccnc1 | 18.7
63 | COc1cc(OC)c([N+](=O)[O-])cc1/C=N/NC(=O)c1ccncc1 | -7.21
64 | COc1cc(O)c(C(CCN2CCOCC2)c2ccc(N(C)C)cc2)c(OC)c1 (stereo not drawn) | 7.96
65 | O=C(C1CCCN(S(=O)(=O)c2cccc3nsnc23)C1)N1CCc2ccccc21 (stereo not drawn) | -21.9
66 | COc1ccccc1C(=O)C1CCCN(Cc2cccc(OCCO)c2)C1 (stereo not drawn) | -19.6

Row | SMILES | hERG current change (%, negative = inhibition) at 10uM [%]
67 | CC(C)N(CCCNC(=O)C1CCC(CNS(=O)(=O)c2ccccc2)CC1)Cc1ccccc1 (stereo not drawn) | -42.1
68 | COc1ccc(OC)c(NC(=O)c2cccnc2Sc2cc(C)ccc2C)c1 | -2.28
69 | O=C(c1cc(Cl)ccc1O)N1CCN(S(=O)(=O)c2cccs2)CC1 | 8.1
70 | CCCC(c1nnnn1CS(=O)(=O)c1ccc(C)cc1)N1CCN(c2ccc(F)cc2)CC1 (stereo not drawn) | -4.41
71 | Cc1c(-c2ccccc2)oc2c(C(=O)N3CCN(c4ccc([N+](=O)[O-])cc4)CC3)cccc2c1=O | -75.4
72 | Cc1ccccc1N1CCN(C2CCCN(C(=O)Cc3c(C)noc3C)C2)CC1 (stereo not drawn) | -8.91
73 | O=C(NCc1cccnc1)Nc1ccc(Cl)cc1 | -41.5
74 | Cc1onc(-c2c(Cl)cccc2Cl)c1CO/N=C(\C#N)c1c(Cl)cccc1Cl | 16.5
75 | CCOC(=O)C1=C(c2cccc(F)c2)NC(=S)NC1C (stereo not drawn) | -9.26
76 | CCOC(=O)c1sc2nc(NC(=O)COc3ccccc3)sc2c1C | 11.9
77 | CCOc1ccc(/C=C/C(=O)OCC(=O)Nc2cccc(S(=O)(=O)N3CCCC3)c2)cc1 | -22.5
78 | Cn1cc(CC(=O)NCCN2CCOCC2)c2ccccc21 | 2.23
79 | COc1ccc(CC(CC(=O)O)C(=O)Nc2ccc(OC)cc2)cc1 (stereo not drawn) | 10.2
80 | COC(=O)c1ccc(CSc2nnc(NC(=O)C3CCCO3)s2)cc1 (stereo not drawn) | -23.5
81 | COc1ccc(CCC(=O)O)c(O)c1 | 9.96
82 | COc1cccc(CN2CC(C(=O)NC3(c4ccccc4)CC3)CCC2=O)c1 (stereo not drawn) | -7.23
83 | CCC(NC(=O)c1cc(COc2ccc(C)nc2)on1)c1ccc(C)cc1 (stereo not drawn) | -19.3
84 | Cc1cc([N+](=O)[O-])cc2c1-c1ncccc1C2=Nc1ccccc1 | -9.15
85 | O=C(OCN1C(=O)C(=O)c2ccccc21)c1ccc(Cl)cc1 | 26.6
86 | CCC(CC)NC(=O)COC(=O)c1ccc(OCC(=O)Nc2ccccc2OC)c(OC)c1 | 11.4
87 | Cn1c(=O)[nH]c(=O)c2c1nc(SCC(=O)O)n2Cc1ccccc1 | -5.45
